Measured values taken from PubChem BioAssay AID493208 (National Center for Advancing Translational Sciences (NCATS), 2011).
About 340 (0.77%) of roughly 44,000 compounds were called active. Not shown: some 5% with an inconclusive outcome. Calls come from the whole dose curve; as a rule, active = well fitted inhibition curve with a large enough effect; inconclusive = small, poorly fitted or top-dose-only effect; inactive = flat fitted curve, though single readings scatter. The list shows a part of the results.

Assay: Acumen qHTS Assay for Inhibitors of the mTORC1 Signaling Pathway in MEF (Tsc2-/-, p53-/-) Cells: Sytravon;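 note: plate controls were DMSO for no effect and rapamycin for full effect; nearly all actives have a fitted effect of over 50% in size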
Conditions: phospho-rpS6 immunofluorescence/PI, 24 h; series mostly up to 38.3 µM; activity change, negative = inhibition: at the top concentration
Summary of the method: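 Readout is phospho-S6 Alexa 488 signal normalized to PI per well, reported as % active cells with thresholds set from rapamycin (7.5 nM) and DMSO controls. Cells: Tsc2-/-, p53-/- MEFs, 24 hrs compound at 37 C; PI cell number serves as viability.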

Activity change, negative = inhibition, inactive:
Cc1ccc(-c2cn3c(n2)sc2cc(C(=O)NC4CCCCCC4)ccc23)cc1 1.75%, Cc1cc(C)n2nc(CNC(=O)c3cccc(N(C)C)c3)nc2n1 -3.04%, CCC12CN3CC(CC)(CN(C1)C3c1c[nH]c3ccccc13)C2=O (stereo unspecified) -6.48%, Cc1noc2ncnc(NCCc3ccccc3)c12 -2.99%, COc1ccc(NS(=O)(=O)c2ccc3c(c2)CC(C)N3C(=O)C2CCC2)cc1OC (stereo unspecified) -16.5%, Cc1ccc(NS(=O)(=O)c2ccc3nc(-c4ccccc4)[nH]c3c2)cc1Cl -5.54%, COc1ccc(Br)cc1CNC(=O)C1CCN(c2nnc(-n3cccc3CNc3ccc(C)cc3)s2)CC1 -2.17%, CCn1cc(C(=O)N(C)c2cc(C)ccc2C)c2cc(OC)c(OC)cc2c1=O 14.6%, O=S(=O)(Nc1nc2n(n1)C(c1ccc(F)cc1)C=C(c1ccc(Cl)cc1)N2)c1ccccc1 (stereo unspecified) 2.28%, CSc1nn(CC(=O)Nc2ccc(C)cc2C)c(N)c1S(=O)(=O)c1ccc(Cl)cc1 -13.6%, COc1cc2c(C(=O)N3CCN(c4ccc(F)cc4)CC3)cn(CC(C)C)c(=O)c2cc1OC -19.8%, CCOc1ccccc1NC(=O)C1CCCN(S(=O)(=O)c2cccs2)C1 (stereo unspecified) -10%, COc1ccc(NC(=O)c2sc3nc4n(c(=O)c3c2C)CCC4)c(OC)c1 2.02%, CCOC(=O)N1CCN(c2ncc3c(n2)CC(c2ccc(OC)c(OC)c2)CC3=O)CC1 (stereo unspecified) -5.15%, Cc1noc(/C=C/c2ccccc2F)c1S(=O)(=O)N1CCC(C(=O)NCc2ccco2)CC1 -8.3%, COc1ccc(CCNC(=O)CCc2c(C)nc3cc(-c4ccc(Cl)cc4)nn3c2C)c(OC)c1 5.09%, CCOC(=O)c1ccccc1NC(=O)N1CCCn2nc(C)cc21 2.09%, Cc1cc(C)cc(N2C(=O)CSC23C(=O)N(CC(=O)NC2CCCCC2)c2ccccc23)c1 (stereo unspecified) -0.928%, COc1ccc(C(=O)Nc2cccc(OCc3cc(=O)n4c5c(sc4n3)CCCC5)c2)cc1OC -0.702%, CCc1ccc(NC(=O)Cn2c(=O)n(Cc3ccc(C)cc3)c(=O)c3cccnc32)cc1 2.05%, CC(=O)N1CCCc2cc(S(=O)(=O)N3CCC(C(=O)N(C)C4CCCCC4)CC3)ccc21 -4%, Cc1ccccc1C(=O)Nc1nnc(S(=O)(=O)N2CCc3ccccc32)s1 -5.43%, COc1ccc(OC)c(CCNC(=O)c2cnn(-c3ccccc3)c2-n2cccc2)c1 -9.92%, O=C(CCS(=O)(=O)c1cc(Br)cc2c1N(C(=O)C1CC1)CC2)N1CCN(c2ccccc2)CC1 6.65%, CNC(=O)C1CCN(C(=O)N2CC(C)Oc3ccc(Cl)cc32)CC1 (stereo unspecified) 5.08%, CCOc1ccc(C2CC(=O)c3c([nH]c(C(=O)OCCOc4ccccc4)c3C)C2)cc1 (stereo unspecified) -10.4%
